Reference: article PMC12136788
This is one part of the list.

T1: UNK ZnF1-6 (called full-length) (human, UniProt Q9C0B0 30-357)
T1 sequence: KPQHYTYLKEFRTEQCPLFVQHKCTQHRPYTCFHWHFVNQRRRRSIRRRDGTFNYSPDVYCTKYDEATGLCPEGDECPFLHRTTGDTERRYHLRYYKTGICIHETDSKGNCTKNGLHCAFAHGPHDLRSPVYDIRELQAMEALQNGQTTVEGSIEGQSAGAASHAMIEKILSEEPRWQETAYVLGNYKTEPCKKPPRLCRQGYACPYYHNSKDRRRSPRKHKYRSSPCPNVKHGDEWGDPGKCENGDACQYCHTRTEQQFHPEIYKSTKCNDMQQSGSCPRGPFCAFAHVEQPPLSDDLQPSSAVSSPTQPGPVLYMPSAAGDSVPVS

B1: chr22:42060953:42061055:-|CDS|ENSG00000198951|unk|FALSE|unique (ssRNA)
RNA: GGGAGUUCUACAGUCCGACGAUCCCAGGAAAAAUCUCUCAUCGAAGUGUACAUGCGGCCUCUGUCCAACAAGGCUAGCGCCUUAGUCUUCUUCAGCUGCAGGACCGAUAUGCCUUAUCGCUACCACUCCUCCCUUGGCCAGCUCAACAGAGGAUUGAGCAUCA
B2: ENSG00000198589:be:win_5951|CDS|ENSG00000198589|bound_else_gene|NA|bound_elsewhere_windowed (ssRNA)
RNA: GGGAGUUCUACAGUCCGACGAUCACUGGGAAGAUGACUUGCGGCGCCGGCGACGAUUUGUGCGUAACCCUCUAGGAUCGACACAUCCUGAAGCGACACUAAAAACAGCCGUGGAACAUGCCACAGAUGAAGAUAUCCUUGCUACAACAGAGGAUUGAGCAUCA
B3: chr17:44678858:44679043:-|CDS|ENSG00000180329|control|control|control (ssRNA)
RNA: GGGAGUUCUACAGUCCGACGAUCUCGGGAUGAAUCCCAAAGGAAGAAGGAACAGGACAAGCUGCAGAGGGAGAGAGACAAACUAGCCAAGCAGGAGCGCAAGGAAAAGGAAAAAAAAAGGACACAGAGAGGGGAGCGAAAGCGCAACAGAGGAUUGAGCAUCA
B4: chr6:98868534:98874277:-|three_prime_utr|ENSG00000112234|control|control|control (ssRNA)
RNA: GGGAGUUCUACAGUCCGACGAUCAUUAAAAUUAAUGUGCUUUGUUGGGGUUUAAUUUUGGGAUUGGUUUUGGGUUUUGUUUUUAGUUGUUUUAAUGGUAAGAAUUAAGACAUUUGUAGAUUUUAAAGAAAAAUAUGAAAUUGUCAACAGAGGAUUGAGCAUCA
B5: chrX:72139229:72139330:+|CDS|ENSG00000204131|unk|FALSE|unique (ssRNA)
RNA: GGGAGUUCUACAGUCCGACGAUCUCCCUUAGUGCCCAGCAAGAGGCCCAGCACAGAAGGCAGAGGUCCAAGAGUAUCUCACUUAGGAAGGCCAAAAAGAAGCCUUCCCCACCCACACGCAGUGUCUCACUGGUCAAAGAUGAGCAACAGAGGAUUGAGCAUCA
B6: chr22:31279490:31279591:+|3pUTR|ENSG00000182541|msi1|total|mutant (ssRNA)
RNA: GGGAGUUCUACAGUCCGACGAUCAGCAGCUUGGGCUGGGAAGAGGUGGUGGCAGAGUCUCAAAGCUGAGAUGCUGAGAGAGACCGCUCCCUGAGCUGGGCCAUCUGACUUCUACCUCCCAUGUUUGCUCUCCCAACUCAUCCGCAACAGAGGAUUGAGCAUCA
B7: ENSG00000112339:stop:overlap|stop_codon|ENSG00000112339|stop_codon|NA|stop_codon (ssRNA)
RNA: GGGAGUUCUACAGUCCGACGAUCUGAAGGACAAGAAUGAGGCAACAGUAUCUACAGGAAAGAUAGCAAAAGGCCCUUGCUGCUAGACCUUCAGCUUUUGCCUCAACACUGUGUCUUCGUUACCCACUGAAAAGCUGCAAGCGACAACAGAGGAUUGAGCAUCA
B8: chr12:121847077:121847190:-|CDS|ENSG00000158104|unk|total|mutant (ssRNA)
RNA: GGGAGUUCUACAGUCCGACGAUCAAAAACCUGCAGUUCCACCGCUUCUGGUCCGUGGAUGACACGCAGGUGCACACGGAAUACCGCUCUCUGCGAUCCAUUGUGGUGGCCAACUAUGAAGAGUCCAUCAAGAUGCCCAUCAAUCAACAGAGGAUUGAGCAUCA
B9: ENSG00000198589:be:win_6801|CDS|ENSG00000198589|bound_else_gene|NA|bound_elsewhere_windowed (ssRNA)
RNA: GGGAGUUCUACAGUCCGACGAUCAAAAAGAGCAGCAUUCUUCGCUGAGCGUUAUGAAUCAUGGGAAGAUGAUCAAGUUCCAAAGUUUCACUAUGGUACUCAUUACUCAACUGCAAGUUUUGUUCUUGCAUGGCUGCUAAGAAUCAACAGAGGAUUGAGCAUCA
B10: chr6:52279506:52279615:-|CDS|ENSG00000112118|unk|total|mutant (ssRNA)
RNA: GGGAGUUCUACAGUCCGACGAUCUGAGUGUGGCAUUUUUAAGACAGGACGGAGAUCACUCUGUCCCUCUGUGUGCCUUUUUCCCGGAUGAGGAGAACAAUCCCCUUGAGACAGAAUAUGGCCUUUCUGUCUACAAGGAUCACCCAACAGAGGAUUGAGCAUCA
B11: ENSG00000198589:be:win_6601|CDS|ENSG00000198589|bound_else_gene|NA|bound_elsewhere_windowed (ssRNA)
RNA: GGGAGUUCUACAGUCCGACGAUCACCCAGCGAUGGCAACACAGAGAGAUAUCUAAUUUUGAGUACUUGAUGUUUCUCAACACGAUAGCAGGACGGAGUUAUAAUGACUUAAAUCAGUAUCCAGUGUUUCCUUGGGUCAUCACUCAACAGAGGAUUGAGCAUCA
B12: chr6:96891104:96891324:-|CDS|ENSG00000123545|unk|FALSE|unique (ssRNA)
RNA: GGGAGUUCUACAGUCCGACGAUCUAAUCAUAAGCUUUUCCCAGAAACCUGGACUGCUGAGAAAAUAAUGCAGGAAUACCAGUUAGAACAGAAAGAUGUGAAUUCUCUUCUUAAAUAUUUUGUUACUUUUGAAGUCGAAAUCUUCAACAGAGGAUUGAGCAUCA
B13: chr15:52550141:52550321:-|3pUTR|ENSG00000128989|msi1|FALSE|unique (ssRNA)
RNA: GGGAGUUCUACAGUCCGACGAUCAGAUGUCACUUUAGUAAAAUACCAAUUUAGUUUUACUUGUGGCUUAUCUAGUUAGAACUUAGCAGACUUUACUGGGACAAGUUUACUGCUCUUGUAGGAGCUCCUCUCACAAGUAGUUGUCAACAGAGGAUUGAGCAUCA
B14: chr10:62807900:62808002:+|3pUTR|ENSG00000181915|unk|total|mutant (ssRNA)
RNA: GGGAGUUCUACAGUCCGACGAUCCAAAAAGUUGAUCCGCUUACCAAGAUUAUUAACCGCAAUGUAUGUGUUAUAAUACAACUCCGUACAUUAAAGCUACGAAAACUCAUCCUGGCUGCCGGACCGUAAUAAAGGAAGAAUUAUCAACAGAGGAUUGAGCAUCA
B15: chr8:133458587:133458688:-|3pUTR|ENSG00000008513|msi1|FALSE|unique (ssRNA)
RNA: GGGAGUUCUACAGUCCGACGAUCAUGAAACAAAAGCCCUUACUUGGGAAAAGGGACCCCCACCAGCGGCCCUGCUUGCUCCGUAGCUGGGAACAUCUUUUCUGGUUUCCUGAGCCAGCACCUGAAUUGCAACGAAGCUCUGAGCAACAGAGGAUUGAGCAUCA
B16: chr5:180576808:180576909:+|3pUTR|ENSG00000113300|unk|total|mutant (ssRNA)
RNA: GGGAGUUCUACAGUCCGACGAUCUAUUUUCCGUGUCCUAAAUAAUUUUCAAUAAUCUAUAAUCCCUAAAAUGCAAUAAAAACCCGUAUGUUUUCACGGUGUAUAUUUUUUUUCAAAAAUUCUGUAACAAAUAUAUUUAAUGUGCAACAGAGGAUUGAGCAUCA
B17: chr14:70725571:70725672:-|3pUTR|ENSG00000006432|unk|FALSE|unique (ssRNA)
RNA: GGGAGUUCUACAGUCCGACGAUCUAUUGUUAGAAACGCAUUACCAAAUGCAUCUCUUCUGUCGGAUCAGCGUAUUCCUAGAUUAGGAAUUCAAAUUAAUGAAAAUUCACAUAUGAAAGGAAAAUCCAUUGCUAUUUCUGGAGACAACAGAGGAUUGAGCAUCA
B18: chr6:37331633:37331734:+|3pUTR|ENSG00000065491|unk|total|mutant (ssRNA)
RNA: GGGAGUUCUACAGUCCGACGAUCCCGUUCCCCUUCUGCCCCAGUCUGAGCCAGUGAGGGGCCGCUUUUUAAAACCAUUAUUCCCGAUGGAGGAGGCACUGAUGCUUGUAACUCUGGAAAGAGGCCUACACCCAAGGGCCCGGACAACAGAGGAUUGAGCAUCA
B19: chr1:35190724:35191005:-|CDS|ENSG00000116560|unk|total|mutant (ssRNA)
RNA: GGGAGUUCUACAGUCCGACGAUCGCCCUUUCUGUUCGUAAUCUUUCACCUUAUGUUUCCAAUGAACUGUUGGAAGAAGCCUUCCGCCAAUUUGGUCCUAUUGAAAGGGCUGUUGUAACCGUGGAUGAUCGUGGAAGAUCUACACAACAGAGGAUUGAGCAUCA
B20: chr3:64018827:64018930:-|CDS|ENSG00000163636|unk|FALSE|unique (ssRNA)
RNA: GGGAGUUCUACAGUCCGACGAUCUGAACUCAUGGAUUAUAAAACAUUUGUGACUUAUACUGUCUAUGUCAGUAUGAUUGCCUUAGAAAGACCAGAUCUCAGGGAAAAGGUAAUGACCAAACUUUAAUACUCAAAUUUAAAGACCAACAGAGGAUUGAGCAUCA
B21: chr19:7926739:7926850:-|3pUTR|ENSG00000104980|unk|FALSE|unique (ssRNA)
RNA: GGGAGUUCUACAGUCCGACGAUCAGGGUGGGACCCGGGACCCGCGGCUCAGUGGCCCGCUAGCCACGUCAGCCAAGCCACUUUAGGUCCAUUUUUUAAUUUUAACAGUGCUCUUCCAUCUUGUGCAUAAGCCUGAGAUUUGGACAACAGAGGAUUGAGCAUCA
B22: chr11:69651696:69651723:+|3pUTR|ENSG00000110092|msi1_unk|FALSE|overlapping (ssRNA)
RNA: GGGAGUUCUACAGUCCGACGAUCGAGGAUUAGGUUCCAUCCUUUACGUGUUUAAAAAAAAGCAUAAAAACAUUUUAAAAACAUAGAAAAAUUCAGCAAACCAUUUUUAAAGUAGAAGAGGGUUUUAGGUAGAAAAACAUAUUCCAACAGAGGAUUGAGCAUCA

Target: T1, UNK ZnF1-6 (called full-length)
Assay: nsRBNS (natural sequence RNA bind-n-seq); RBNS binding buffer (assumed for nsRBNS): 25 mM Tris pH 7.5, 150 mM KCl, 3 mM MgCl2, 0.01% Triton X-100, 500 ug/ml BSA, 20 U/ml SUPERase-In, 4 C; UNK is unkempt and MSI1 is Musashi-1; names of the RNAs are library labels; protein concentration not given here; high values mean tight binding

| Binder | binding signal [enrichment R] |
| --- | --- |
| B1 | 0.806 |
| B2 | 0.473 |
| B3 | 0.927 |
| B4 | 12.9 |
| B5 | 1.31 |
| B6 | 0.701 |
| B7 | 0.344 |
| B8 | 0.452 |
| B9 | 0.193 |
| B10 | 0.393 |
| B11 | 0.398 |
| B12 | 0.645 |
| B13 | 2.25 |
| B14 | 0.286 |
| B15 | 0.658 |
| B16 | 10.6 |
| B17 | 2.56 |
| B18 | 0.736 |
| B19 | 0.479 |
| B20 | 0.48 |
| B21 | 3.77 |
| B22 | 13.5 |
